Like-named read-outs stand apart in the source and are kept apart here. Marks after values point to notes of the source that are not given here.
System: Influenza A/NWS/33 (H1N1) virus
Conditions: for Mean Day to Death ± SD: mice dying prior to day 21
[1] = 100 ng/mouse/day i.p. d-2, 0, 3, 6
[2] = 1,000 ng/mouse/day i.p. d0, 3, 6
[3] = 10,000 ng/mouse/day i.p. d0, 3, 6

B1: rBBX-01: Recombinant Apicomplexa-related protein (ARP) having the sequence of SEQ ID NO:20; termed Barrogen, also called rBBX-01 or E1 (protein, listed as Eimeria tenella)
chain: GEEADTQAWDTSVREWLVDTGRVFAGGVASIADGCRLFGAAVEGEGNAWEELVKTNYQIEVPQEDGTSISVDCDEAETLRQAVVDGRAPNGVYIGGTKYKLAEVKRDFTFNDQNYDVAILGKNKGGGFLIKTPNENVVIALYDEEKEQNKADALTTALNFAEYLYQGGF
Infected, Treated Mice Surv/Total (100 ng/mouse/day i.p. d0 (4 h post-virus), 3, 6): 2/10 | Mean Day 11 SaO2 (% ± SD) (100 ng/mouse/day i.p. d0, 3, 6): 76.0 ± 1.9% | Mean Day to Death ± SD (100 ng/mouse/day i.p. d0, 3, 6): 12.1 ± 1.6 days | Infected, Treated Mice Surv/Total [1]: 0/10 | Mean Day 11 SaO2 (% ± SD) [1]: 75.3 ± 0.7% | Mean Day to Death ± SD [1]: 12.3 ± 1.2 days | Infected, Treated Mice Surv/Total (1,000 ng/mouse/day i.p. d0 (4 h post-virus), 3, 6): 3/10 | Mean Day 11 SaO2 (% ± SD) [2]: 76.5 ± 1.9 % | Mean Day to Death ± SD [2]: 12.7 ± 2.7 days | prevention of death (10,000 ng i.p. days 0, 3, 6): 50% | inhibition of lung virus titer (10,000 ng i.p. days 0, 3, 6, on both days 3 and 5): 0.2 loglo | Infected, Treated Mice Surv/Total (10,000 ng/mouse/day i.p. d0 (4 h post-virus), 3, 6): 5/10* | Mean Day 11 SaO2 (% ± SD) [3]: 77.6 ± 3.0 % | Mean Day to Death ± SD [3]: 12.0 ± 1.4 days | delay in mean day to death (1,000 and 100 ng doses): one | inhibition of lung virus titer (1,000 and 100 ng doses, day 3): 0.5 log10

Reference: US7550150B2, “Methods of treating or preventing a disease, disorder or condition associated with a viral infection” (Barros Research Institute, priority 2005, dated 2009)
